# Test results as given in paper PMC4336329 (PLoS ONE, 2015).
# In all, about 310,000 compounds went through this assay and about 14,000 (4.5%) showed an effect of 50% or more. The effect is printed as a negative number. Some of the results follow.
# Target: human ether-à-go-go-related gene (hERG) potassium channel (human, UniProt Q12809)
# Assay: primary screen, population patch clamp on CHO cells stably expressing hERG
# 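Note: peak tail current of the secondary pulse compared with the same well before compound.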
# human ether-à-go-go-related gene (hERG) potassium channel, sequence (Q12809 whole entry, looked up): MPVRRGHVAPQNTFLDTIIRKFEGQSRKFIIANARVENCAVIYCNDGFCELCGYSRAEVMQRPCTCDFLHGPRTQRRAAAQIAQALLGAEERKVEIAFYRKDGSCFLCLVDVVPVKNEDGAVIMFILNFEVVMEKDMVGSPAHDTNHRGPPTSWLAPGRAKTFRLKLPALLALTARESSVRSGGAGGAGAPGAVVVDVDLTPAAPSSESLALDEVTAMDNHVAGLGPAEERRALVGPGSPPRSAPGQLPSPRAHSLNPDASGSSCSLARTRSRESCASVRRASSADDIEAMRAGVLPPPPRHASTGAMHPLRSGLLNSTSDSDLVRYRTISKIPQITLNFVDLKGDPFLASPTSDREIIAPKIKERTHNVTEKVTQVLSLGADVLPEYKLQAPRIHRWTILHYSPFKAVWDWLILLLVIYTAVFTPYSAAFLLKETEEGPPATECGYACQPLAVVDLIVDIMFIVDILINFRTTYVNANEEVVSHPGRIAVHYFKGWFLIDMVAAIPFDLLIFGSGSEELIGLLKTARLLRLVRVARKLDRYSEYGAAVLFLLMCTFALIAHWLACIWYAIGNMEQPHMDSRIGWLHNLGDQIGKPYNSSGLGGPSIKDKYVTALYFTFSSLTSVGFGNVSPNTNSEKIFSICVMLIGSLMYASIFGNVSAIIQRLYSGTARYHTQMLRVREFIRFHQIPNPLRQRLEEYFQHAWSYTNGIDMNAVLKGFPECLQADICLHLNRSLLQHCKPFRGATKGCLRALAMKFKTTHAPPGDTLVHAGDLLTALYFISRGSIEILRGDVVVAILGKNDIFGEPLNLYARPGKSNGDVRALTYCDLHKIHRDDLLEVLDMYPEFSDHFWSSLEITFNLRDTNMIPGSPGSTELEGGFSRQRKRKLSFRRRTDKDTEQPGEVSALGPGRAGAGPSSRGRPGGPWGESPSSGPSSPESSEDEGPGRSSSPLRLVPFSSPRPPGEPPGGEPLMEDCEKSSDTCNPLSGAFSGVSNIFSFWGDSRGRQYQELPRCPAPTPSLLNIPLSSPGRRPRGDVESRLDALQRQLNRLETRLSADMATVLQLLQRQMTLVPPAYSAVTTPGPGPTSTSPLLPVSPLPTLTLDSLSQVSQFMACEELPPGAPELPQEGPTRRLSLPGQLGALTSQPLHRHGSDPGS
row,SMILES,"hERG current change (%, negative = inhibition) at 10uM [%]"
1,C=CCN(CC=C)c1cnn(-c2nc3ccccc3[nH]2)c(=O)c1Cl,-32.1
2,O=C(c1ccccc1)c1c[nH]c(C(=O)NNc2cccc(Cl)n2)c1,17.6
3,Cc1c(C(=O)Nc2ccncc2)oc2c1C(=O)CC(C)(C)C2,-18.3
4,CC(=O)NNC(=S)NC(=O)C(c1ccccc1)c1ccccc1,-2.5
5,O=C(O)COc1ccccc1/C=N/n1c(C2CCCCC2)n[nH]c1=S,27.2
6,COc1cccc(NC(=O)CN(C)C(=O)c2cccc(S(=O)(=O)N3CCN(c4ccc(F)cc4)CC3)c2)c1,-45.1
7,O=C1OC(Nc2ccc(Br)cc2F)c2ccccc21 (centres unmarked),-1.43
8,CSc1ccc(/C=C(\C(=O)O)c2ccc(S(=O)(=O)N3CCCCC3)s2)cc1,-23.9
9,O=C(O)CC1(CC(=O)Nc2ccc(Br)cc2)CCCCC1,13.8
10,Cc1cc2ncn(CCC(=O)NC3CCCC3)c2cc1C,10.1
11,CCN(CC)CCCN=Cc1c(O)n(CCc2ccc(F)cc2)c(=O)[nH]c1=O,-56.1
12,CCOC(=O)N1CCC(NC(=O)c2ccc3snnc3c2)CC1,-48.3
13,CCc1cccc(CC)c1NC(=O)CN(CC(=O)O)CC(=O)O,15
14,O=C(/C=N/O)NCCCN1CCCCCC1,-14
15,Cc1ccc2c(c1)nnn2C1CCN(S(=O)(=O)c2ccc(C(=O)N3C(C)CCCC3C)cc2)CC1 (centres unmarked),-5.73
16,COc1ccc(C(c2nnnn2C2CCCCC2)N2CCN(c3ccccc3F)CC2)cc1 (centres unmarked),12.8
17,COc1ccc(CNc2cccc(F)c2)cc1Br,-7.3
18,COC/C=C/C1=CC2=CC(=O)C(C)(OC(=O)c3cnc4ccccc4n3)C(=O)C2=CN1C1CCCCC1 (centres unmarked),7.4
19,CCc1c(C)[nH]n(-c2nc(-c3ccccc3)cs2)c1=O,14.5

row,SMILES,"hERG current change (%, negative = inhibition) at 10uM [%]"
1,O=C1C=C(c2ccc3ncccc3c2)C[C@@H](c2ccc(Cl)cc2)C1,-3.34
2,C[C@@H](NC(=O)c1nc[nH]c1C(=O)N1CCN(C(=O)OC(C)(C)C)CC1)c1ccccc1,4.5
3,CCOCCCNCc1cn(-c2ccc(F)cc2F)nc1-c1ccccc1C,-48
4,O=C1Nc2ccccc2S/C1=C\C(=O)N1CCCC1,12.3
5,O=C(NC1CCCCC1)N1CCC(n2cnc3ccccc32)CC1,8.95
6,O=C(/C=C/c1ccc(OCc2c(F)cccc2Cl)cc1)N1CCOCC1,-30.1
7,C[C@@H]1CN(C2CCN(Cc3nc(C(c4ccccc4)c4ccccc4)no3)CC2)C[C@H](C)O1,-38.6
8,Cc1cc(Cl)ccc1OC(C)C(=O)Nc1ccc(S(=O)(=O)N2CCOCC2)cc1 (centres unmarked),8.13
9,O=C(Nc1nnc(Cc2ccc([N+](=O)[O-])cc2)s1)Nc1ccccc1F,22.9
10,COc1cc(/C=N/NC(=O)c2nnn(-c3nonc3N)c2C(C)C)ccc1OCc1ccc(F)cc1,31.1
11,Cc1ccc2c(CC(=O)NCc3ccco3)coc2c1C,-9.09
12,CC(=O)Nc1c(O)nc(SCC(=O)Nc2c(C)cccc2C)[nH]c1=O,1.63
13,O=C(COC(=O)c1cc(Cl)ccc1Cl)NCCN1C(=O)CSC1=O,8.32
14,Cc1nc(C(=O)NCC(=O)c2ccc(Cl)cc2)c(C(F)(F)F)o1,3.44
15,CSc1nnc(C)c(=O)n1COC(=O)COc1ccc(Cl)cc1Cl,-8.5
16,COc1cc(S(=O)(=O)NCc2ccc3c(c2)OCO3)ccc1F,-0.02
17,COc1ccc(C2C=C(C34CC5CC(CC(C5)C3)C4)NC(=S)N2)cc1OC (centres unmarked),-26.4
18,COC(=O)C(C)Sc1ccc2nnc(-c3ccc(F)cc3)n2n1 (centres unmarked),-27
19,O=C(N/N=C1\CC(c2ccccc2)Oc2ccccc21)c1ccc(O)cc1 (centres unmarked),12.4

row,SMILES,"hERG current change (%, negative = inhibition) at 10uM [%]"
1,Cc1ccc(NC(=O)C(=O)c2c(-c3ccccc3)cc3ccccn23)cc1S(=O)(=O)N1CCOCC1,-16.7
2,Clc1ccc(-c2cn3c(n2)-c2ccccc2C3)cc1Cl,5.44
3,CCOc1ccc(Cl)cc1S(=O)(=O)NCc1cccnc1,-10.6
4,Cc1cc(C)c(S(=O)(=O)NCc2cn3ccccc3n2)c(C)c1,4.96
5,CC(Oc1cc2oc(=O)c3c(c2cc1Cl)CCCC3)C(=O)NCc1ccncc1 (centres unmarked),-41.8
6,COc1ccccc1/C=C/C=N/n1c(-c2ccncc2)n[nH]c1=S,21.9
7,CCOC(=O)C1CCCN(C(=O)COC(=O)C2=COCCO2)C1 (centres unmarked),9.77
8,O=C(c1ccccc1)c1ccccc1N/C=C/c1nnnn1-c1ccccc1,1.11
9,C/C(=N\Nc1nc(C)cc(-c2ccccc2)n1)c1ccc(C)o1,-15.4
10,C#CCNC(=O)C1=C[C@H](C2CCCCC2)C[C@H](OCc2ccc(CO)cc2)O1,-13.9
11,CCOc1ccccc1C1C2C(=O)N(c3ccccc3)C(=O)C2ON1c1ccccc1 (centres unmarked),-37.1
12,CC(C)(C)c1ccc(O)c(N=Cc2cc3c(cc2[N+](=O)[O-])OCO3)c1,-25.1
13,CCOC(=O)c1cnc2cc(C)ccn2c1=O,-7.41
14,CC(C)c1ccc(NC(=O)Nc2cc3sccc3n2C)cc1,22.2
15,CC(=O)c1c(C)[nH]c(C(=O)OCC(=O)Nc2ccc([N+](=O)[O-])cc2Cl)c1C,-5.81
16,O=C(O)c1nonc1-c1nonc1C(=O)O,-9.42
17,O=C(Nc1nnc(/N=C/c2ccco2)s1)c1ccc(F)cc1,11.8
18,O=C(COC(=O)c1cccs1)Nc1cccc(S(=O)(=O)NC2=NCCCCC2)c1,-6.47
